Results reported in PubChem BioAssay AID1768 (National Center for Advancing Translational Sciences (NCATS), 2009).
The campaign covered roughly 270,000 compounds. About 620 (0.23%) were called active. This list was built around the results that the source calls inconclusive (neither active nor inactive); the mix of calls is not that of the screen. The call rests on the fitted dose curve; in most records, active means well fitted inhibition curve with a large enough effect in the polarisation, with a control signal flat (not every such curve was filed as active); inconclusive means small, poorly fitted or top-dose-only effect, or effect the other way, or a change in a side signal; inactive means no such curve, though single readings can be large or run the other way; the % refers to the polarisation. Potencies beside an inconclusive call are fits to weak or partial responses and may not hold up. A note “side channel” means that the fit belongs to a control or component signal, not to the main read-out.

Target: Menin (Homo sapiens) (UniProt O00255)
Sequence of UniProt O00255 (O00255 whole entry, looked up): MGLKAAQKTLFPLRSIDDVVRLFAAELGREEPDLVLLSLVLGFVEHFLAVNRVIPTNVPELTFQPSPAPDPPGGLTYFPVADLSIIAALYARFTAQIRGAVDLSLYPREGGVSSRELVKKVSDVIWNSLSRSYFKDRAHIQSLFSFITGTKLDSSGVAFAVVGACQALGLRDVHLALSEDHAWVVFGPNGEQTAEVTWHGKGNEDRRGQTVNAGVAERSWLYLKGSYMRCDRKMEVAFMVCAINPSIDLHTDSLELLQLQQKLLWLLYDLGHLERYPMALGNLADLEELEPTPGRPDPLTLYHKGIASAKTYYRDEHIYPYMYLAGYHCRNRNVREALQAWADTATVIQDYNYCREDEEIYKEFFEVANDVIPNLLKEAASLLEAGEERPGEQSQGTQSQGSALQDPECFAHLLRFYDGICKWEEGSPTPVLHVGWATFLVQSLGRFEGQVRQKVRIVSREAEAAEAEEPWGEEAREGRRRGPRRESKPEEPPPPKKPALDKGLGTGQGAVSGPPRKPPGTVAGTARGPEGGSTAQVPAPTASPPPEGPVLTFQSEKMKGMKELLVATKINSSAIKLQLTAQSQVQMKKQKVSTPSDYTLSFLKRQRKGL
Experiment: qHTS Assay for Inhibitors Targeting the Menin-MLL Interaction in MLL Related Leukemias: Competition With Texas Red Labeled MLL-derived Mutant Peptide
Conditions: fluorescence polarization; series mostly up to 61.6 µM
Potency means the concentration at half of the fitted maximal effect; tags describe the fitted curve by direction and shape or compound fluorescence and quenching.

Which Potency does the source give for `COc1ccccc1N1CCN(C(=O)CSc2nc3ccccc3nc2N2CCC(C)CC2)CC1` here?
The Potency was inconclusive: 3.55 µM [inhibitor, partial curve].

With `COc1ccc2o/c(=N/NC(=O)c3cccs3)c(C(N)=O)cc2c1` as the compound, how does the Potency read?
The Potency was “inactive”.

For `Cc1cc2ncn(C(=O)c3c(-c4ccccc4Cl)noc3C)c2cc1C`, which Potency is on record?
The Potency was inconclusive: 28.2 µM [fluorescent, side channel, single point].

For `c1ccc(-n2nnnc2NCCc2c[nH]c3ccccc23)cc1`, which Potency is on record?
Its Potency is inconclusive: 39.8 µM [quencher, side channel, single point].

With `COc1ccc(C2=NN(C(=O)CN3CCCCC3)C(c3ccc(C)cc3)C2)cc1` (configuration not stated) as the compound, how does the Potency read?
The Potency was inconclusive: 7.94 µM [fluorescent, side channel, partial curve].

For `S=c1[nH]nc(C2CCCCC2)n1Cc1ccccc1`, which Potency is on record?
Its Potency is inconclusive: 25.1 µM [fluorescent, side channel, partial curve].

For `CCOC(=O)c1[nH]c2ccc(C)cc2c1NC(=O)CN1CCCCC1`, which Potency is on record?
The Potency was “inactive”.

For `Cn1c(NCc2cc(Br)ccc2O)nc2ccccc21`, which Potency is on record?
The Potency was inconclusive: 11.2 µM [quencher, side channel, partial curve].

How did the Potency turn out when `CCOC(CNc1cc(C)nc2c(-c3ccccc3OC)c(C)nn12)OCC` was run?
The Potency was inconclusive: 17.8 µM [inhibitor, single point].

With `O=C(Nc1ccc2c(c1)OCCO2)c1ccc(S(=O)(=O)N2CCCCC2)cc1` as the compound, how does the Potency read?
Its Potency is inconclusive: 28.2 µM [quencher, side channel, single point].

With `CC1=NN(C(N)=S)C(=O)C1N=Nc1ccc(Cl)cc1Cl` (configuration not stated) as the compound, how does the Potency read?
The Potency was inconclusive: 12.6 µM [quencher, side channel, partial curve].

For `Cc1c(Cl)cccc1NC(=O)NCc1ccc(F)cc1`, which Potency is on record?
Its Potency is inconclusive: 31.6 µM [inhibitor, single point].

For `O=C(COC(=O)Cn1cnc2ccccc21)Nc1ccc2c(c1)C(=O)c1ccccc1C2=O`, which Potency is on record?
Its Potency is inconclusive: 7.94 µM [quencher, side channel, partial curve].

With `CC1CCc2c(sc3nc(C(C)(C)C)nc(N4CCN(C(=O)CCl)CC4)c23)C1` (configuration not stated) as the compound, how does the Potency read?
Its Potency is “inactive”.

For `CC(C)=CCCC1(C)C=Cc2c(c(C)cc3c2[nH]c2ccccc23)O1` (configuration not stated), which Potency is on record?
The Potency was inconclusive: 3.16 µM [quencher, side channel, full curve].

How did the Potency turn out when `COc1cc2c(cc1OC)C1C/C(=N\O)C(CC(C)C)CN1CC2` (configuration not stated) was run?
The Potency was inconclusive: 11.2 µM [inhibitor, partial curve].

`COCCN=C1Sc2nc3ccc(C)cc3cc2CN1Cc1cccs1` was tested. Which Potency did it give?
The Potency was inconclusive: 8.91 µM [inhibitor, full curve, poor fit].

With `CCOc1ccc(-n2c(=S)sc3c(=O)n(-c4ccccc4)c(SCC(=O)O)nc32)cc1` as the compound, how does the Potency read?
The Potency was inconclusive: 20 µM [quencher, side channel, partial curve].

With `CCOC(OCC)c1cn(Cc2ccc3c(c2)C(=O)c2ccccc2C3=O)nn1` as the compound, how does the Potency read?
The Potency was inconclusive: 1.26 µM [quencher, side channel, full curve, poor fit].

`C=CCN(C(=O)Cn1ncc2c1-c1cc(C)ccc1OC2)c1ccccc1` was tested. Which Potency did it give?
The Potency was inconclusive: 0.708 µM [inhibitor, full curve].

How did the Potency turn out when `NC(=O)c1ccccc1N=Cc1ccc2ccccc2c1` was run?
Its Potency is inconclusive: 7.08 µM [inhibitor, partial curve].

Which Potency does the source give for `COc1ccc(/C=N\NC(=O)c2cc(O)c(O)c(O)c2)cc1CN1CCN(c2ccc(F)cc2)CC1` here?
The Potency was inconclusive: 2.82 µM [quencher, side channel, full curve].

With `CCOC(=O)CC(=O)CSc1nc2ccccc2c(=O)n1-c1ccc(C(=O)N2CCOCC2)cc1` as the compound, how does the Potency read?
The Potency was inconclusive: 11.2 µM [inhibitor, partial curve].

With `CC(C)c1ccc(OCC(O)CNC(C)c2ccccc2)cc1` (configuration not stated) as the compound, how does the Potency read?
The Potency was inconclusive: 10 µM [fluorescent, side channel, partial curve].

How did the Potency turn out when `O=C1c2ccccc2C(O)N1c1ccccc1` (configuration not stated) was run?
Its Potency is “inactive”.

For `COc1ccc2[nH]cc(CCNc3ccnc(-c4ccccc4Cl)n3)c2c1`, which Potency is on record?
The Potency was inconclusive: 22.4 µM [quencher, side channel, partial curve].

How did the Potency turn out when `Cc1c(C)n(C)c2ccc(C(=O)N3CCN(c4ccccc4)CC3)cc12` was run?
The Potency was inconclusive: 31.6 µM [fluorescent, side channel, single point].

For `CCOc1ccc(-c2[nH]ncc2Oc2cccc(OC)c2)c(O)c1`, which Potency is on record?
The Potency was inconclusive: 22.4 µM [quencher, side channel, partial curve].

Which Potency does the source give for `CC(=O)c1ccc(NC(=O)C(=O)c2cn(CC(=O)N3CCCCC3)c3ccccc23)cc1` here?
Its Potency is inconclusive: 35.5 µM [inhibitor, single point].

With `CCC(NC(=S)NCc1ccc(F)cc1)c1ccccc1` (configuration not stated) as the compound, how does the Potency read?
The Potency was inconclusive: 25.1 µM [quencher, side channel, single point].

`O=C1Nc2ccc3sc4ccccc4c3c2C1=O` was tested. Which Potency did it give?
The Potency was inconclusive: 17.8 µM [quencher, side channel, partial curve].

With `O=C(O)Cc1cc(C(=O)Nc2ccc(Br)cc2)sc1-c1ccccc1` as the compound, how does the Potency read?
The Potency was inconclusive: 15.8 µM [quencher, side channel, partial curve].

How did the Potency turn out when `Cc1ccc(C)c(S(=O)(=O)NCc2ccc(C(=O)N3CCC(Cc4ccccc4)CC3)cc2)c1` was run?
The Potency was inconclusive: 0.708 µM [inhibitor, full curve].

Which Potency does the source give for `C1CCN2C[C@@H]3C[C@@H](CN4CCCC[C@H]34)[C@H]2C1` here?
The Potency was “inactive”.

For `Cc1ccc(NC(=S)NC(NC(=O)Cc2cccc3ccccc23)C(Cl)(Cl)Cl)cc1` (configuration not stated), which Potency is on record?
The Potency was inconclusive: 3.16 µM [inhibitor, partial curve].

For `O=C(Nc1cc(Cl)ccc1O)C1CC(c2ccccc2Cl)=NO1` (configuration not stated), which Potency is on record?
The Potency was inconclusive: 20 µM [quencher, side channel, partial curve].

How did the Potency turn out when `COc1ccc(/C=C2\CCCC3C2=NN(C(=O)c2ccco2)C3c2ccc(OC)c(OC)c2)cc1OC` (configuration not stated) was run?
The Potency was inconclusive: 2.82 µM [fluorescent, side channel, full curve, poor fit].
